# Some of the results follow.
# Key:
# Experiment in all cases: glycan array binding signal (z-score within array); higher = stronger binding
# Settings in all cases: glycan notation: IUPAC condensed, linker removed
# [1] = target: Glc(a1-6)Glc(a1-6)Glc(a1-6)Glc
# Summary of the method: (§1)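 The binding signal is a Z-score computed within each array and averaged over linkers. Arrays of the same protein sequence at different concentrations or buffers were also averaged together. Data originate from 3228 arrays in the Consortium for Functional Glycomics database, kept only where the protein sequence was available.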
# [2] = target: Glc(b1-4)Glc
# Summary of the method: as §1
# [3] = target: Glc(b1-6)Glc
# Summary of the method: as §1
# [4] = target: GlcA(b1-3)Gal
# Summary of the method: as §1
# [5] = target: GlcA(b1-3)GlcNAc
# Summary of the method: as §1
# [6] = target: GlcA(b1-6)Gal
# Summary of the method: as §1
# [7] = target: GlcA3S(b1-3)Gal(b1-4)GlcNAc(b1-2)Man
# Summary of the method: as §1
# [8] = target: GlcA3S(b1-3)Gal(b1-4)GlcNAc(b1-3)Gal(b1-4)Glc
# Summary of the method: as §1
# [9] = target: GlcNAc(a1-3)Gal(b1-4)GlcNAc
# Summary of the method: as §1
# [10] = target: GlcNAc(a1-4)Gal(b1-3)GlcNAc
# Summary of the method: as §1
# [11] = target: GlcNAc(a1-4)Gal(b1-4)GalNAc
# Summary of the method: as §1
# [12] = target: GlcNAc(a1-4)Gal(b1-4)GlcNAc
# Summary of the method: as §1
# [13] = target: GlcNAc(a1-4)Gal(b1-4)GlcNAc(b1-3)Gal(b1-4)Glc
# Summary of the method: as §1
# [14] = target: GlcNAc(a1-4)Gal(b1-4)GlcNAc(b1-3)Gal(b1-4)GlcNAc
# Summary of the method: as §1
# [15] = target: GlcNAc(a1-4)Gal(b1-4)GlcNAc(b1-3)Gal(b1-4)GlcNAc(b1-3)Gal(b1-4)GlcNAc
# Summary of the method: as §1
# [16] = target: GlcNAc(a1-4)Gal(b1-4)GlcNAc(b1-3)Gal(b1-4)[Fuc(a1-3)]GlcNAc(b1-3)Gal(b1-4)[Fuc(a1-3)]GlcNAc
# Summary of the method: as §1
# [17] = target: GlcNAc(a1-6)Gal(b1-4)GlcNAc
# Summary of the method: as §1
# [18] = target: GlcNAc(b1-2)Gal(b1-3)GalNAc
# Summary of the method: as §1
# [19] = target: GlcNAc(b1-2)Man(a1-3)[GlcNAc(b1-2)Man(a1-6)]Man(b1-4)GlcNAc(b1-4)GlcNAc
# Summary of the method: as §1
# [20] = target: GlcNAc(b1-2)Man(a1-3)[GlcNAc(b1-2)Man(a1-6)]Man(b1-4)GlcNAc(b1-4)[Fuc(a1-6)]GlcNAc
# Summary of the method: as §1
# [21] = target: GlcNAc(b1-2)Man(a1-3)[GlcNAc(b1-4)][GlcNAc(b1-2)Man(a1-6)]Man(b1-4)GlcNAc(b1-4)GlcNAc
# Summary of the method: as §1
# [22] = target: GlcNAc(b1-2)Man(a1-3)[GlcNAc(b1-4)][GlcNAc(b1-2)Man(a1-6)]Man(b1-4)GlcNAc(b1-4)[Fuc(a1-6)]GlcNAc
# Summary of the method: as §1
# [23] = target: GlcNAc(b1-2)[GlcNAc(b1-4)]Man(a1-3)[GlcNAc(b1-2)Man(a1-6)]Man(b1-4)GlcNAc(b1-4)GlcNAc
# Summary of the method: as §1
# [24] = target: GlcNAc(b1-2)[GlcNAc(b1-4)]Man(a1-3)[GlcNAc(b1-4)][GlcNAc(b1-2)Man(a1-6)]Man(b1-4)GlcNAc(b1-4)GlcNAc
# Summary of the method: as §1
# [25] = target: GlcNAc(b1-2)[GlcNAc(b1-4)]Man(a1-3)[GlcNAc(b1-4)][GlcNAc(b1-2)[GlcNAc(b1-6)]Man(a1-6)]Man(b1-4)GlcNAc(b1-4)GlcNAc
# Summary of the method: as §1
# [26] = target: GlcNAc(b1-2)[GlcNAc(b1-4)]Man(a1-3)[GlcNAc(b1-4)][GlcNAc(b1-2)[GlcNAc(b1-6)]Man(a1-6)]Man(b1-4)GlcNAc(b1-4)[Fuc(a1-6)]GlcNAc
# Summary of the method: as §1
# [27] = target: GlcNAc(b1-2)[GlcNAc(b1-6)]Man(a1-6)[GlcNAc(b1-2)Man(a1-3)]Man(b1-4)GlcNAc(b1-4)GlcNAc
# Summary of the method: as §1
# [28] = target: GlcNAc(b1-2)[GlcNAc(b1-6)]Man(a1-6)[GlcNAc(b1-2)Man(a1-3)]Man(b1-4)GlcNAc(b1-4)[Fuc(a1-6)]GlcNAc
# Summary of the method: as §1
# [29] = target: GlcNAc(b1-2)[GlcNAc(b1-6)]Man(a1-6)[GlcNAc(b1-2)Man(a1-3)][GlcNAc(b1-4)]Man(b1-4)GlcNAc(b1-4)GlcNAc
# Summary of the method: as §1
# [30] = target: GlcNAc(b1-2)[GlcNAc(b1-6)]Man(a1-6)[GlcNAc(b1-4)][GlcNAc(b1-2)Man(a1-3)]Man(b1-4)GlcNAc(b1-4)GlcNAc
# Summary of the method: as §1
# [31] = target: GlcNAc(b1-3)Fuc
# Summary of the method: as §1
# [32] = target: GlcNAc(b1-3)Gal
# Summary of the method: as §1
# [33] = target: GlcNAc(b1-3)Gal(b1-3)GalNAc
# Summary of the method: as §1
# [34] = target: GlcNAc(b1-3)Gal(b1-4)Glc
# Summary of the method: as §1
# [35] = target: GlcNAc(b1-3)Gal(b1-4)GlcNAc
# Summary of the method: as §1
# [36] = target: GlcNAc(b1-3)Gal(b1-4)GlcNAc(b1-2)Man(a1-3)[GlcNAc(b1-3)Gal(b1-4)GlcNAc(b1-2)Man(a1-6)]Man(b1-4)GlcNAc(b1-4)GlcNAc
# Summary of the method: as §1
# [37] = target: GlcNAc(b1-3)Gal(b1-4)GlcNAc(b1-2)Man(a1-3)[GlcNAc(b1-3)Gal(b1-4)GlcNAc(b1-2)Man(a1-6)]Man(b1-4)GlcNAc(b1-4)[Fuc(a1-6)]GlcNAc
# Summary of the method: as §1
# [38] = target: GlcNAc(b1-3)Gal(b1-4)GlcNAc(b1-2)[GlcNAc(b1-3)Gal(b1-4)GlcNAc(b1-6)]Man(a1-6)[GlcNAc(b1-3)Gal(b1-4)GlcNAc(b1-2)Man(a1-3)]Man(b1-4)GlcNAc(b1-4)GlcNAc
# Summary of the method: as §1
# [39] = target: GlcNAc(b1-3)Gal(b1-4)GlcNAc(b1-3)Gal(b1-4)GlcNAc
# Summary of the method: as §1
# [40] = target: GlcNAc(b1-3)Gal(b1-4)GlcNAc(b1-3)Gal(b1-4)GlcNAc(b1-2)Man(a1-3)[GlcNAc(b1-3)Gal(b1-4)GlcNAc(b1-3)Gal(b1-4)GlcNAc(b1-2)Man(a1-6)]Man(b1-4)GlcNAc(b1-4)GlcNAc
# Summary of the method: as §1
# [41] = target: GlcNAc(b1-3)Gal(b1-4)GlcNAc(b1-3)Gal(b1-4)GlcNAc(b1-2)Man(a1-3)[GlcNAc(b1-3)Gal(b1-4)GlcNAc(b1-3)Gal(b1-4)GlcNAc(b1-2)Man(a1-6)]Man(b1-4)GlcNAc(b1-4)[Fuc(a1-6)]GlcNAc
# Summary of the method: as §1
# [42] = target: GlcNAc(b1-3)Gal(b1-4)GlcNAc(b1-3)Gal(b1-4)GlcNAc(b1-2)[GlcNAc(b1-3)Gal(b1-4)GlcNAc(b1-3)Gal(b1-4)GlcNAc(b1-6)]Man(a1-6)[GlcNAc(b1-3)Gal(b1-4)GlcNAc(b1-3)Gal(b1-4)GlcNAc(b1-2)Man(a1-3)]Man(b1-4)GlcNAc(b1-4)[Fuc(a1-6)]GlcNAc
# Summary of the method: as §1
# [43] = target: GlcNAc(b1-3)Gal(b1-4)GlcNAc(b1-3)Gal(b1-4)GlcNAc(b1-3)Gal(b1-4)GlcNAc(b1-2)Man(a1-3)[GlcNAc(b1-3)Gal(b1-4)GlcNAc(b1-3)Gal(b1-4)GlcNAc(b1-3)Gal(b1-4)GlcNAc(b1-2)Man(a1-6)]Man(b1-4)GlcNAc(b1-4)GlcNAc
# Summary of the method: as §1
# [44] = target: GlcNAc(b1-3)Gal(b1-4)GlcNAc(b1-3)Gal(b1-4)GlcNAc(b1-3)Gal(b1-4)GlcNAc(b1-2)Man(a1-3)[GlcNAc(b1-3)Gal(b1-4)GlcNAc(b1-3)Gal(b1-4)GlcNAc(b1-3)Gal(b1-4)GlcNAc(b1-2)Man(a1-6)]Man(b1-4)GlcNAc(b1-4)[Fuc(a1-6)]GlcNAc
# Summary of the method: as §1
# [45] = target: GlcNAc(b1-3)Gal(b1-4)GlcNAc(b1-3)Gal(b1-4)GlcNAc(b1-3)Gal(b1-4)GlcNAc(b1-2)[GlcNAc(b1-3)Gal(b1-4)GlcNAc(b1-3)Gal(b1-4)GlcNAc(b1-3)Gal(b1-4)GlcNAc(b1-6)]Man(a1-6)[GlcNAc(b1-3)Gal(b1-4)GlcNAc(b1-3)Gal(b1-4)GlcNAc(b1-3)Gal(b1-4)GlcNAc(b1-2)Man(a1-3)]Man(b1-4)GlcNAc(b1-4)[Fuc(a1-6)]GlcNAc
# Summary of the method: as §1
binder,measurement,setting,value
"Gal 1 (Mus musculus), P16045 (protein) MACGLVASNLNLKPGECLKVRGEVASDAKSFVLNLGKDSNNLCLHFNPRFNAHGDANTIVCNTKEDGTWGTEHREPAFPFQPGSITEVCITFDQADLTIKLPDGHEFKFPNRLNMEAINYMAADGDFKIKCVAFE",glycan array binding signal (z-score),[1],-0.114
same,glycan array binding signal (z-score),[2],-0.292
same,glycan array binding signal (z-score),[3],-0.16
same,glycan array binding signal (z-score),[4],-0.156
same,glycan array binding signal (z-score),[5],0.529
same,glycan array binding signal (z-score),[6],-0.204
same,glycan array binding signal (z-score),[7],0.968
same,glycan array binding signal (z-score),[8],0.769
same,glycan array binding signal (z-score),[9],-0.351
same,glycan array binding signal (z-score),[10],-0.437
same,glycan array binding signal (z-score),[11],-0.241
same,glycan array binding signal (z-score),[12],-0.325
same,glycan array binding signal (z-score),[13],-0.39
same,glycan array binding signal (z-score),[14],-0.374
same,glycan array binding signal (z-score),[15],-0.404
same,glycan array binding signal (z-score),[16],-0.015
same,glycan array binding signal (z-score),[17],-0.252
same,glycan array binding signal (z-score),[18],-0.318
same,glycan array binding signal (z-score),[19],-0.326
same,glycan array binding signal (z-score),[20],-0.306
same,glycan array binding signal (z-score),[21],-0.353
same,glycan array binding signal (z-score),[22],-0.412
same,glycan array binding signal (z-score),[23],0.003
same,glycan array binding signal (z-score),[24],-0.366
same,glycan array binding signal (z-score),[25],-0.288
same,glycan array binding signal (z-score),[26],-0.276
same,glycan array binding signal (z-score),[27],-0.385
same,glycan array binding signal (z-score),[28],0.049
same,glycan array binding signal (z-score),[29],-0.232
same,glycan array binding signal (z-score),[30],-0.388
same,glycan array binding signal (z-score),[31],-0.43
same,glycan array binding signal (z-score),[32],-0.409
same,glycan array binding signal (z-score),[33],-0.222
same,glycan array binding signal (z-score),[34],-0.371
same,glycan array binding signal (z-score),[35],-0.328
same,glycan array binding signal (z-score),[36],-0.255
same,glycan array binding signal (z-score),[37],-0.095
same,glycan array binding signal (z-score),[38],-0.17
same,glycan array binding signal (z-score),[39],-0.141
same,glycan array binding signal (z-score),[40],0.724
same,glycan array binding signal (z-score),[41],-0.19
same,glycan array binding signal (z-score),[42],0.07
same,glycan array binding signal (z-score),[43],-0.18
same,glycan array binding signal (z-score),[44],0.071
same,glycan array binding signal (z-score),[45],0.254

# Reference: the supplement of paper PMC8728848
